Assay results: patent publication US20200062696A1, “COMPOSITIONS AND METHODS FOR INHIBITING RETICULON 4” (THE REGENTS OF THE UNIVERSITY OF CALIFORNIA, priority 2017, published 2020)

Assays:
[1] = system: U2OS osteosarcoma cells; test: Serum-free cell survival of U2OS cells; assay type: cell-based; conditions: 50 μM, 48 h
Method: FIGS. 11A-11C. DKM 3-30 and analogs. (FIG. 11A) Structures of DKM 3-30 and analogs. (FIG. 11B) Gel-based ABPP analysis showing competition side-by-side competition studies of DKM 3-30, YP 1-46, and AMR 1-125 against IA-rhodamine labelling of pure human RTN4. Shown are the 50% inhibitory concentration (IC50) values for each compound. (FIG. 11C) Serum-free cell survival of U2OS (48 h) or SW620 (24 h) cells treated with DMSO vehicle or each compound (50 μM). Data in (C) are presented as mean±sem. Significance is expressed as *p<0.001 compared to vehicle-treated controls.
Cell Culture. SW620 cells were purchased from ATCC. SW620 cells were grown in L-15 media with 10% fetal bovine serum (FBS) in ambient CO2. U2OS cells were grown in DMEM media supplemented with 10% FBS at 37° C. with 5% CO2.
Survival and Proliferation Assays. Cells were plated the evening before the experiment, and allowed to adhere overnight. For serum-free cell survival assays, cells were plated in media not containing FBS. For cell proliferation assays, cells were plated in regular media. For the chemical genetics screen, cells were treated with either DMSO or the cysteine-reactive fragment for 48 h and cell viability was assessed by Hoescht stain using our previously described methods

[2] = system: GFP-expressing MEF cells; test: Apoptosis (propidium iodine and Annexin-V, flow cytometry) in GFP-expressing MEF cells; assay type: cell-based, mouse; conditions: DKM 3-30 50 μM, 0, 8 or 16 h
Method: FIG. 12. Effect of DKM 3-30 in Mouse Embryonic Fibroblast (MEF) cells expressing human RTN4. C1101 in human RTN4 is instead a serine in mouse RTN4. […] GFP or RTN4-GFP expressing MEF cells were treated with DKM 3-30 (50 μM) for 0, 8, or 16 h and apoptotic cells (propidium iodine positive and Annexin-V positive) were assessed by flow cytometry. Data are presented as mean±sem. Significance is expressed as *p<0.05 compared to 0 h time-point.

C=CC(=O)Nc1ccc(Oc2ccc(Cl)cc2)cc1 [DKM 3-30, N-(4-(4-chlorophenoxy)phenyl)acrylamide]
cell survival in U2OS cells [1]: impairs osteosarcoma cell survival
viability / apoptosis in GFP-expressing MEF cells [2]: does not show viability impairments
